The source of these data is PubChem BioAssay AID1508642 (National Center for Advancing Translational Sciences (NCATS), 2021).

In all, about 43,000 compounds went through this assay and about 200 (0.47%) were called active. Not shown: some 12% with an inconclusive outcome. Calls come from the whole dose curve; as a rule, active = well fitted cell-killing curve with a large enough effect; inconclusive = small, poorly fitted or top-dose-only effect, or effect the other way; inactive = flat fitted curve, though single readings scatter. This is one part of the list.
% is set by controls: 0 for no effect and ±100 for the full control effect; potency is the fitted concentration of half-maximal effect.

The assay in a line: Cell viability qHTS assay in S16 Pmp22-F2sN cells. Note: nearly all actives have a fitted effect of over 65% in size. The settings on record: S16 Pmp22-F2sN Schwann cells viability, CellTiter-Glo, 24 h; series mostly up to 57.5 µM; activity change, negative = cytotoxicity: at the top concentration. In a few lines:
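S16 Pmp22-F2sN Schwann cells (500-1,000/well) in phenol-red-free DMEM with 10% FBS received 23 nL compound by pin tool for 24 h at 37 °C. Viability was then read as CellTiter-Glo luminescence after 15 min at room temperature.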
For `COC(=O)c1ccccc1NC(=O)CSc1nc(=O)cc(N)n1-c1ccccc1`, the “activity change, negative = cytotoxicity” value is inactive: 0.624%.

Regarding `CCOc1ccc(NC(=O)CSc2nnc(-c3ccc(OCC)cc3)o2)cc1`, the “activity change, negative = cytotoxicity” value was inactive: -3.15%.

Take `Cc1ccc(NC(=O)Cn2c(=O)n(Cc3nc(-c4ccccc4)no3)c(=O)c3ccccc32)cc1C`: the “activity change, negative = cytotoxicity” value was inactive: -2.23%.

Consider `COc1cc(OC)c(NC(=O)CN2CCCN(Cc3ccccc3C)S2(=O)=O)cc1Cl`, for which the “activity change, negative = cytotoxicity” value is inactive: 0.206%.

With `CCc1ccc(S(=O)(=O)c2cn(Cc3ccccc3F)c3cc(OC)c(OC)cc3c2=O)cc1`, the “activity change, negative = cytotoxicity” value was inactive: -18.3%.

Take `Cc1ccccc1C(=O)Nc1c(C)nc2ccccn2c1=O`: the “activity change, negative = cytotoxicity” value is inactive: 10.6%.

On to `Cn1c(=O)oc2cc(S(=O)(=O)N3CCCC(C(=O)NCCc4ccccc4)C3)ccc21` (stereo not drawn), for which the “activity change, negative = cytotoxicity” value was inactive: 9.18%.

Consider `CC(=O)c1ccc(NS(=O)(=O)c2ccc3[nH]c4c(c3c2)CCCC4)cc1`, for which the “activity change, negative = cytotoxicity” value is inactive: 0.117%.

On to `Cc1cc(S(=O)(=O)NCC(c2ccco2)S(=O)(=O)c2cccs2)ccc1F` (stereo not drawn), for which the Potency is active: 10 µM.

With `Cc1cccc(NC(=O)CS(=O)(=O)c2cccc3nsnc23)c1`, the “activity change, negative = cytotoxicity” value was inactive: -0.0382%.

For the compound `Cc1ccc(CCNC(=O)c2c3c(nc4ccccc24)C(=O)N(C2CCCCC2)C3)cc1`, the “activity change, negative = cytotoxicity” value is inactive: -1.04%.

For the compound `Cc1cccc(CNC(=O)c2ccc3nc(Cc4ccccc4)oc3c2)c1`, the “activity change, negative = cytotoxicity” value is inactive: -6.09%.

As for `O=C(NCCc1ccccc1)c1nn(-c2ccc(F)cc2)nc1CO`, the “activity change, negative = cytotoxicity” value was inactive: -7.25%.

Consider `CCOc1ccc(C2c3[nH]c4ccccc4c3CCN2C(=O)CSCc2ccc(F)cc2)cc1` (stereo not drawn), for which the “activity change, negative = cytotoxicity” value is inactive: -9.41%.

`Cc1ccc(F)cc1NC(=O)Cn1c(C)cc(C)c(C#N)c1=O`: the “activity change, negative = cytotoxicity” value is inactive: -2.56%.

For `CC1CCN(c2nc3ccc(C(=O)NCc4ccccc4Cl)cc3s2)CC1`, the “activity change, negative = cytotoxicity” value was inactive: -0.811%.

Regarding `O=C(NC1CCCC1)c1ccc2c(c1)N(Cc1ccccc1)C(=O)c1ccccc1S2`, the “activity change, negative = cytotoxicity” value was inactive: -1.24%.

As to `Cc1ccc(S(=O)(=O)c2nnn3c2nc(NCCc2ccccc2)c2sccc23)cc1`, the “activity change, negative = cytotoxicity” value is inactive: -0.685%.

Consider `COc1ccc(N2CCN(Cc3nc4c(c(=O)[nH]c(=O)n4C)n3CC(C)C)CC2)cc1`, for which the “activity change, negative = cytotoxicity” value is inactive: 16.8%.

Consider `O=C(NCc1cccc(Br)c1)c1ccc(NC(=O)N2CCCCc3ccccc32)cc1`, for which the “activity change, negative = cytotoxicity” value was inactive: -24.3%.

For `COCCCNC(=O)Cn1c(=O)nc(-c2ccccc2)c2ccccc21`, the “activity change, negative = cytotoxicity” value is inactive: 5.85%.

On to `Cc1ccc(-n2nc3c(=O)n(CC(=O)NCCC(C)C)nc(C)c3c2C)cc1`, for which the “activity change, negative = cytotoxicity” value was inactive: -3%.

As to `CC(CNC(=O)c1nnc(Cc2ccc(F)cc2)o1)c1ccccc1` (stereo not drawn), the “activity change, negative = cytotoxicity” value is inactive: 4.74%.

Take `O=C(Cn1cc(S(=O)(=O)Cc2cccc(Cl)c2)c2ccccc21)Nc1ccccc1Cl`: the “activity change, negative = cytotoxicity” value is inactive: 9.16%.

In the case of `COc1cccc(NC(=O)CSc2nccn2C2CCCC2)c1`, the “activity change, negative = cytotoxicity” value was inactive: 1.25%.

Take `CCCCC12CN3CC(C)(CN(C1)C3c1ccc(O)c(OC)c1)C2=O` (stereo not drawn): the “activity change, negative = cytotoxicity” value was inactive: 0.0571%.

Regarding `COc1ccc(Cn2cc(C(=O)c3ccc(C)c(C)c3)c(=O)c3ccccc32)cc1`, the “activity change, negative = cytotoxicity” value is inactive: -17.4%.

As to `CCOc1ccc(CCNC(=O)c2cc(C)nc3c2c(C)nn3-c2cccc(F)c2)cc1`, the “activity change, negative = cytotoxicity” value is inactive: 5.59%.

As to `Cc1cccn2c(=O)c(C(=O)NCCc3ccccc3)cnc12`, the “activity change, negative = cytotoxicity” value is inactive: -0.297%.

Take `COc1ccc(C)cc1NS(=O)(=O)c1c(C(=O)N2CCCCCC2)c(C)n(C)c1C`: the “activity change, negative = cytotoxicity” value is inactive: 10.7%.

Consider `COc1ccc(CC(=O)NCCc2csc(-c3cccc(C)c3)n2)cc1`, for which the “activity change, negative = cytotoxicity” value was inactive: 3.45%.

With `CC(C)OCCCNC(=O)Cn1ccc2cc(S(=O)(=O)N3CCCCCC3)ccc21`, the “activity change, negative = cytotoxicity” value was inactive: -14.9%.

With `Cc1cccc(OCC(=O)Nc2ccc(-c3nc4ccccc4o3)cc2)c1C`, the “activity change, negative = cytotoxicity” value was inactive: 15.6%.

As to `CC(C)CNC(=O)N1[C@H](c2cccs2)[C@@H](C)C(=O)[C@@H](C)[C@@H]1c1cccs1`, the “activity change, negative = cytotoxicity” value was inactive: 3.93%.

Turning to `Cc1oc(-c2ccccc2Cl)nc1Cn1c(SCc2cccc(F)c2)nc2cccnc21`, the “activity change, negative = cytotoxicity” value was inactive: -24.5%.

In the case of `Cc1ccc(-n2c(=O)[nH]c3cc(C(=O)NCc4ccccc4)ccc3c2=O)cc1`, the “activity change, negative = cytotoxicity” value was inactive: -0.232%.

Turning to `CC(=O)c1cccc(NC(=O)CC(c2ccc(C)cc2)N2Cc3ccccc3C2=O)c1` (stereo not drawn), the “activity change, negative = cytotoxicity” value is inactive: -3.96%.

As for `Cc1nc(-c2ccccc2)sc1-c1ccc(SCC(=O)NCc2ccc(Cl)cc2)nn1`, the “activity change, negative = cytotoxicity” value was inactive: 24%.

Consider `CCn1nc(C)c(CCN(C)C(=O)Nc2cc(OC)c(OC)c(OC)c2)c1C`, for which the “activity change, negative = cytotoxicity” value is inactive: -1.52%.

On to `Cc1ccc(N2CC(NC(=O)c3ccc(S(=O)(=O)N4CCOCC4)cc3)CC2=O)cc1` (stereo not drawn), for which the “activity change, negative = cytotoxicity” value is inactive: 3.44%.

Take `CCOC(=O)c1cnn(-c2ccc(C(=O)Nc3cccc(C(C)=O)c3)cc2)c1N`: the “activity change, negative = cytotoxicity” value was inactive: 1.34%.

Consider `CCN(C(=O)Nc1cn(CC(C)C)c(=O)c2ccccc12)c1cc(C)ccc1C`, for which the “activity change, negative = cytotoxicity” value was inactive: 4.98%.

As for `Cc1ccc2nc(Nc3ccc(C)c(F)c3)c3nncn3c2c1`, the “activity change, negative = cytotoxicity” value is inactive: -5.63%.

Regarding `Cc1ccc(CNC(=O)CCn2cnc3ccccc3c2=O)cc1`, the “activity change, negative = cytotoxicity” value was inactive: -6.45%.

Turning to `Cc1c(Cl)cccc1NC(=O)C1CCN(c2ncnc3c2nc2n3CCCCC2)CC1`, the “activity change, negative = cytotoxicity” value was inactive: 8.13%.

For the compound `O=C(CCn1c(=O)c2cccn2c2cccnc21)N1CCN(c2ccccc2F)CC1`, the “activity change, negative = cytotoxicity” value was inactive: 5.91%.

As to `Fc1cccc(-c2nnn3c2nc(NCCc2ccccc2)c2ccccc23)c1`, the “activity change, negative = cytotoxicity” value was inactive: 11.7%.

Regarding `COc1ccc2cc(C(=O)NCc3ccc4c(c3)CCN4C(=O)c3ccc(F)cc3)[nH]c2c1`, the “activity change, negative = cytotoxicity” value was inactive: 4.42%.
